The other results are listed elsewhere or left out. Most values come without repeats; read them as rough.
Columns and labels:
[1] = test system: IMR-32; test: drug sensitivity score (DSS), single drug with vehicle (DSS (score)); higher = more cytotoxic; extreme values may be limits of the assay; conditions: 72 h; co-treatment: vehicle (DMSO)
[2] = test system: SK-N-AS; test: as above; conditions: 72 h; co-treatment: vehicle (DMSO)
[3] = test system: SK-N-AS; test: drug sensitivity score (DSS) in combination with SL-176 (DSS (score)); higher = more cytotoxic; extreme values may be limits of the assay; conditions: 72 h; co-treatment: SL-176 11.2 uM (IC25 in IMR-32)
[4] = test system: IMR-32; test: as above; conditions: 72 h; co-treatment: SL-176 11.2 uM (IC25 in IMR-32)
[5] = test system: SK-N-AS; test: drug sensitivity score (DSS) in combination with GSK2830371 (DSS (score)); neuroblastoma lines; SL-176 and GSK2830371 are WIP1 inhibitors; higher = more cytotoxic; extreme values may be limits of the assay; conditions: 72 h; co-treatment: GSK2830371 at IC25 in IMR-32
[6] = test system: IMR-32; test: as above; conditions: 72 h; co-treatment: GSK2830371 at IC25 in IMR-32
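Wherever drug sensitivity score (DSS) in combination with GSK2830371 is given: neuroblastoma cells in 384-well plates, each compound at five concentrations, luminescence read-out, DSS derived from fitted concentration-response curve combining IC50 with minimum and maximum inhibition.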
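Wherever drug sensitivity score (DSS) in combination with SL-176 is given: cells in 384-well plates, luminescence read-out, each screening drug at five concentrations, DSS derived from the fitted concentration-response curve combining IC50 with minimum and maximum inhibition.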
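Wherever drug sensitivity score (DSS), single drug with vehicle is given: 384-well screen with five concentrations per compound and a luminescence read-out, DSS computed from the fitted dose-response curve combining IC50 with minimum and maximum inhibition.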

SMILES	drug sensitivity score [1]	drug sensitivity score [2]	drug sensitivity score [3]	drug sensitivity score [4]	drug sensitivity score [5]	drug sensitivity score [6]
CCCc1cc(C)[nH]c(=O)c1CNC(=O)c1cc(-c2ccnc(N3CCN(C)CC3)c2)cc2c1cnn2C(C)C	0	0	0	0	0	0
NCCNc1ccc(NCCN)c2c1C(=O)c1ccncc1C2=O [Pixantrone]	1.2	0.9	1.1	0.8	0.9	0.9
CN1CCN(c2nc(C3=C(c4c[nH]c5ccccc45)C(=O)NC3=O)c3ccccc3n2)CC1 [Sotrastaurin]	5.2	0.8	2.1	3.5	0.8	7
CS(=O)(=O)c1ccc(-c2cnc(N)c(C(=O)Nc3ccccc3)n2)cc1	3	0.2	0	0	2.6	0
CC(O)c1cc(C(=O)N[C@@H](C)Cn2ccc(-c3ccc(C#N)c(Cl)c3)n2)n[nH]1 (stereo not given in full)	0	0.9	0.9	0	1.1	0
CN(C)C(=N)NC(=N)N [Metformin]	0	0	0	0	0	0
COC(=O)N[C@@H](C)CNc1nccc(-c2cn(C(C)C)nc2-c2cc(Cl)cc(NS(C)(=O)=O)c2F)n1 [Encorafenib]	0	0.9	1.4	0	0.8	0
CC(C)(C)c1cc(NC(=O)Nc2ccc(-c3cn4c(n3)sc3cc(OCCN5CCOCC5)ccc34)cc2)no1 [Quizartinib]	4.9	3.7	4.3	4.5	5	2.9
CN(C)Cc1ccc(S(=O)(=O)n2ccc(/C=C/C(=O)NO)c2)cc1 [Resminostat]	16.5	12.8	11.2	15.7	12.5	17.8
COCCNCc1ccc(-c2cc3nccc(Oc4ccc(NC(=O)C5(C(=O)Nc6ccc(F)cc6)CC5)cc4F)c3s2)nc1 [Sitravatinib]	2.5	1	1	2.8	1.1	3.4
CCn1c(=O)c(-c2ccc(Cl)cc2Cl)cc2cnc(Nc3ccc(N4CCNCC4)c(F)c3)nc21	2.4	3.5	4.2	2.6	5.5	6.9
CN(Cc1cnc2nc(N)nc(N)c2n1)c1ccc(C(=O)N[C@@H](CCC(=O)O)C(=O)O)cc1 [Methotrexate]	18.7	7.9	9.7	13.5	13.1	17.7
C1=N/C2=N/c3ccc(OCCN4CCCC4)c(c3)COC/C=C/COCc3cccc(c3)C(=C1)N2 [Pacritinib]	8.6	10	9.9	8.5	9.5	9.6
O=C(O)c1ccc(O)c2ncccc12	5	2.2	3.1	6	2.1	5
CC(C)(C)NC(=O)[C@H]1CC[C@H]2[C@@H]3CC[C@H]4NC(=O)C=C[C@]4(C)[C@H]3CC[C@]12C [Finasteride]	0	0	0	0	0	0.2
CC[C@@H]1C(=O)OC[C@@H]1Cc1cncn1C [Pilocarpine]	0	0	0.1	0	0	0
C[C@@H]1CN(CC(=O)Nc2ccc3c(c2)Cc2cccc(-c4cc(=O)cc(N5CCOCC5)o4)c2S3)C[C@H](C)O1	2.1	2.5	2.8	13.4	3.5	1.4
COC(=O)c1ccc2c(c1)[nH]c1ncnc(NCCCN3CCCCC3)c12	2.6	0.1	1.6	3.7	2.2	2.8
CNC(=O)c1ccccc1Sc1ccc2c(/C=C/c3ccccn3)n[nH]c2c1 [Axitinib]	17.7	5.3	1.7	10.5	5.7	17.7
COc1cc([C@@H]2c3cc4c(cc3[C@@H](O[C@@H]3O[C@@H]5CO[C@@H](C)O[C@H]5[C@H](O)[C@H]3O)[C@H]3COC(=O)[C@H]23)OCO4)cc(OC)c1O [Etoposide]	27.7	5.8	4.6	29	6	28.8
Cc1nc(Nc2n[nH]c3c2CN(C(=O)N[C@H](CN(C)C)c2ccccc2)C3(C)C)c2sccc2n1	25.6	22.3	22.4	26.9	21.8	34.1
Nc1ncnc2c1nc(Cl)n2[C@@H]1O[C@H](CO)[C@@H](O)[C@H]1O [8-chloro-adenosine]	20.2	15.2	16	16.5	16.4	18.6
O=C(NC[C@H](O)CN1CCc2ccccc2C1)c1cc(NC2COC2)ncn1	0	0.1	0.4	1.3	0	2.6

SMILES	drug sensitivity score [1]	drug sensitivity score [2]	drug sensitivity score [3]	drug sensitivity score [4]	drug sensitivity score [5]	drug sensitivity score [6]
COC(=O)c1ccc2c(c1)NC(=O)/C2=C(\Nc1ccc(N(C)C(=O)CN2CCN(C)CC2)cc1)c1ccccc1 [Nintedanib]	4.9	4.8	7.6	6.8	7.6	8.2
CONC(=O)c1ccccc1Nc1cc(Nc2cc(C)nn2C(C)C)ncc1Cl	0	0	0	0.6	0	0
O=C(O)CCCCC(CCSCc1ccccc1)SCc1ccccc1 (stereo not given)	0	0	0	0	0	0
CN(c1ncccc1CNc1nc(Nc2ccc3c(c2)CC(=O)N3)ncc1C(F)(F)F)S(C)(=O)=O	9.7	8.9	9.5	11.8	9	11.5
COc1ccc(S(=O)(=O)Nc2cccnc2Nc2ccc(O)cc2)cc1	21.4	16.2	16.2	21.7	17.2	23.7
COC[C@H](NC(=O)c1cnc(C)s1)C(=O)N[C@@H](COC)C(=O)N[C@@H](Cc1ccccc1)C(=O)[C@@]1(C)CO1 [Oprozomib]	22	20.5	23.7	21.4	22	19.1
CC(=O)O[C@]1(C(C)=O)CC[C@H]2[C@@H]3C=C(C)C4=CC(=O)CC[C@]4(C)[C@H]3CC[C@@]21C [Megestrol acetate]	2	0	0	0	0	0
CNc1nc(-c2ccc3c(N)n[nH]c3c2)cc(N2C[C@@H](C(=O)NC3CCCCC3)CC[C@H]2C)n1	6.4	3.7	3.4	4	5.1	9.2
Cc1ccc(NC(=O)c2ccc(CN3CCN(C)CC3)cc2)cc1Nc1nccc(-c2cccnc2)n1 [Imatinib]	1.5	0.2	0.2	1.4	0.2	3.6
O=C(c1cccc(Cl)c1F)N1CCN(Cc2cccc(Nc3nccs3)n2)CC1	20.6	8	6.5	19.4	7.7	22.8
CC[C@]12C=CCN3CC[C@@]4(c5cc([C@@]6(C(=O)OC)C[C@@H]7C[C@@H](C(C)(F)F)CN(Cc8c6[nH]c6ccccc86)C7)c(OC)cc5N(C)[C@H]4[C@@](O)(C(=O)OC)[C@@H]1OC(C)=O)[C@@H]32 [Vinflunine]	7.4	7.8	7.4	10.1	7.8	6
COc1cc2/c(=N/c3ccc(Br)cc3F)nc[nH]c2cc1OCC1CCN(C)CC1 [Vandetanib]	0.1	0	0	0	0.1	0
Cc1nn(C)c(COc2ccc(N3CCN(S(=O)(=O)N(C)C)CC3)cc2)c1-c1cccc2c(CCCOc3cccc4ccccc34)c(C(=O)O)n(CCN3CCOCC3)c12	4.6	8.9	8.7	10.8	8.2	7
Nc1cc(F)ccc1NC(=O)c1ccc(CNC(=O)/C=C/c2cccnc2)cc1 [Tucidinostat]	14.1	8.8	7.1	11.1	8.6	15.4
O=C1CN2Cc3c(ccc(Cl)c3Cl)N=C2N1 [Anagrelide]	0	0	0	0	1.3	0
CN1CCN(c2ccc3nc(-c4c(N)c5c(F)cccc5[nH]c4=O)[nH]c3c2)CC1 [Dovitinib]	0	0.3	0.4	0.2	0	3
O=C(O)C1(C(=O)O)CCC1.[NH2-].[NH2-].[Pt+2] [Carboplatin]	15.6	4.8	0.9	16.2	5.7	26.7
COc1cc(C)c(/C=C/C(C)=C/C=C/C(C)=C/C(=O)O)c(C)c1C [Acitretin]	0	1.2	0.8	0	1.9	0
Clc1ccc(C(c2ccccc2Cl)C(Cl)Cl)cc1 (stereo not given) [Mitotane]	0	0	0	0	0	0
COc1cc(Nc2ncc3c(n2)-c2ccc(Cl)cc2C(c2c(F)cccc2OC)=NC3)ccc1C(=O)O [Alisertib]	34.3	13.7	11.1	35.3	13.5	35.3
Cc1cc([C@@H](C)Nc2ccccc2C(=O)O)c2nc(N3CCOCC3)cc(=O)n2c1	0	0	0	0	0.2	0
CC(=O)[C@]1(O)Cc2c(O)c3c(c(O)c2[C@@H](O[C@H]2C[C@H](N)[C@H](O)[C@H](C)O2)C1)C(=O)c1ccccc1C3=O [Idarubicin]	23.1	9.4	9.4	22.5	10.2	25.9

Source: the supplement of paper PMC12009370
